From publication PMC4336329 (PLoS ONE, 2015)
The campaign covered roughly 310,000 compounds. About 14,000 (4.5%) showed an effect of 50% or more. Effects have a minus sign here. The list shows a part of the results.

These compounds were tested against human ether-à-go-go-related gene (hERG) potassium channel (human, UniProt Q12809) (assay: primary screen, population patch clamp on CHO cells stably expressing hERG).
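Further: peak tail current of the secondary pulse compared with the same well before compound.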

Chain of human ether-à-go-go-related gene (hERG) potassium channel (Q12809 whole entry, looked up): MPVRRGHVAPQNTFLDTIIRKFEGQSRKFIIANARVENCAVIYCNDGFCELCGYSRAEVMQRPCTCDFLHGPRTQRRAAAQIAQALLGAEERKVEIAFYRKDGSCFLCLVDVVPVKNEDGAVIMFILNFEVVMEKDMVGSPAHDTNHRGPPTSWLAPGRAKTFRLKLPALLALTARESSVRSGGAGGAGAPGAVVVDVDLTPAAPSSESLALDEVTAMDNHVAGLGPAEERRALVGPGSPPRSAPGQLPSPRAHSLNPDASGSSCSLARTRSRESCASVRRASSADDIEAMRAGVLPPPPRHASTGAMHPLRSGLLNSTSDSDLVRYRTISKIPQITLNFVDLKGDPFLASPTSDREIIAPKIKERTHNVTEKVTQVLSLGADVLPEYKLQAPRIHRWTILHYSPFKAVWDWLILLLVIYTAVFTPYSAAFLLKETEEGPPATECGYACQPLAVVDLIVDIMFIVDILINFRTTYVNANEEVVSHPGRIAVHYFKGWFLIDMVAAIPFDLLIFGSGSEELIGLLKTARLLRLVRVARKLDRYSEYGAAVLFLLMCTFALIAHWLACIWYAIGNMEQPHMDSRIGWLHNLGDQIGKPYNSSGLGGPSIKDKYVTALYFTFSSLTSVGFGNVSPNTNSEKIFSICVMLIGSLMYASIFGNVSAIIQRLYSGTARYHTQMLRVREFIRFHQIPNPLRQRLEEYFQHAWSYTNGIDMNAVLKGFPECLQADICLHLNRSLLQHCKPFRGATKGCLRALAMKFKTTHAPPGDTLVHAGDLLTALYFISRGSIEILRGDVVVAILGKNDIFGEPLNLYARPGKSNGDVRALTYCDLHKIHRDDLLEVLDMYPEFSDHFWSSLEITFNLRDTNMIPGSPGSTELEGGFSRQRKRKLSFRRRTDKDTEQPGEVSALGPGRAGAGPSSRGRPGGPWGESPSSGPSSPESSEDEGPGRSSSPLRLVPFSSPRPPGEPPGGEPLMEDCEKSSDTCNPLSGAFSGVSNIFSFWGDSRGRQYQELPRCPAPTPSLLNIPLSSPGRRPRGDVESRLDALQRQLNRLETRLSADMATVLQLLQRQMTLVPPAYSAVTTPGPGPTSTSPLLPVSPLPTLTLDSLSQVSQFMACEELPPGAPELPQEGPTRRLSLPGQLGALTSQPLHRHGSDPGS

SMILES | hERG current change (%, negative = inhibition) at 10uM [%]
COc1ccc(CN(C)C(=O)CNC(=O)Cc2cccc3ccccc23)c(OC)c1OC | -1.27
CCOC(=O)c1c(C(C)(C)C)oc2ccc(OCC#N)cc12 | -4.17
CC(=O)c1ccc(N(CC(=O)NC2CCCC2)C(=O)CNC(=O)c2cccs2)cc1 | 12.4
O=C(Cc1cccs1)N1CCCC(c2nc3c(nnn3Cc3cccc(Cl)c3)c(=O)[nH]2)C1 (stereo not drawn) | -55.6
COc1ccc(CCN2CC3=C(C2=O)C(c2ccccc2)NC(=O)N3C)cc1OC (stereo not drawn) | -13
O=S(=O)(Nc1ncccn1)c1ccc(NC(=S)NCc2cccnc2)cc1 | 33.8
Nc1cccc2c1C(=O)N(C(=O)/C=C/c1cccc(F)c1)C2=O | -3.29
COc1ccc(OC)c(S(=O)(=O)N2CCCC(C(=O)NCc3ccccn3)C2)c1 (stereo not drawn) | 1.55
Cc1cc(C)n(-c2nc(NCC3CCCO3)c3c4c(sc3n2)COC(C)(C)C4)n1 (stereo not drawn) | -20.2
C/C(=N\NC(=O)c1ccccc1OCc1ccc(F)cc1)c1ccccn1 | -0.556
COC(C(=O)N/N=C(\C)c1ccc(C(C)(C)C)cc1)c1ccccc1 (stereo not drawn) | 13.1
O=C(OCC#CCSc1nc2ccccc2o1)c1ccco1 | -20.8
O=C(NCCC1=CCCCC1)C1CCN(S(=O)(=O)c2cccs2)CC1 | -29.2
COc1ccc(-c2nn3c(COc4ccccc4)nnc3s2)cc1OC | -10.7
COc1ccc(C)cc1NC(=O)CN1C(=O)COc2ccc(C)cc21 | 19.8
CC1=C(C(=O)Nc2ccccc2F)C(c2cccs2)NC(=S)N1 (stereo not drawn) | -9.13
O=C(Nc1c2c(nn1-c1ccc(F)cc1)CS(=O)C2)c1ccc(Br)o1 (stereo not drawn) | 3.67
COc1ccc(CCC(C)Nc2ccccc2F)cc1 (stereo not drawn) | 20.2
Cc1cc(O)c(C(C)C)cc1N=Cc1ccccc1O | 3.77
CN1CCN(CCOc2ccc(-c3ccccc3)cc2)CC1.Cl | -56.3
Cn1c(SCc2cccc3ccccc23)nnc1-c1ccco1 | -48.3
O=c1[nH]c(SCc2n[nH]c(=S)n2-c2ccccc2)nc2ccccc12 | 14
COc1cc(C(C2C(=O)CC(C)(C)CC2=O)C2C(=O)CC(C)(C)CC2=O)ccc1O | 16.8

SMILES | hERG current change (%, negative = inhibition) at 10uM [%]
CCOC(=O)c1c(CN(C)C)n(-c2ccccc2)c2cc(Br)c(O)cc12.Cl | -75.8
CCCCC(c1nnnn1CCOC)N1CCN(C)CC1.Cl (stereo not drawn) | 1.46
NC(=O)C(c1ccc(Cl)cc1)c1ccc(Sc2ccccc2)nn1 (stereo not drawn) | -18.9
C=CCn1c(=O)c2ccccc2n2c(SCC(=O)N3CCCc4ccccc43)nnc12 | -16
Cn1nc(C(F)(F)F)c(C#N)c1N1CCN(c2ccccc2)CC1 | -22
COc1ccc(C(=O)Cn2nc(CNc3ccc(Br)cc3)[n+]3c2CCCCC3)cc1.[Br-] | 15.4
O=C1c2cccc3cccc(c23)C(=O)N1c1nccs1 | -2.49
CC(C)(C)OC(=O)NCc1ccc(CNC(=O)c2[nH]cnc2C(=O)N[C@@H](Cc2ccccc2)C(=O)OCc2ccccc2)cc1 | -13.3
O=C(O)c1cccc(NC(=S)NC(=O)c2ccc(-c3ccc(Cl)cc3)o2)c1 | 16.5
O=C(COC(=O)c1cc([N+](=O)[O-])ccc1N1CCOCC1)NC1CCCCC1 | -30.7
CC(C(=O)NCC1(c2ccccc2)CCOCC1)N1CCOCC1.Cl (stereo not drawn) | 47.6
O=S(=O)(c1ccccc1)N1CCN(CCc2ccccc2)CC1 | 14.2
CC(C)c1ccc(NC(=O)CCNS(=O)(=O)c2ccc3[nH]c(=O)oc3c2)cc1 | 19.9
O=C(NCCc1cccc(Cl)c1)c1cc2ccccc2oc1=O | 12.3
O=C(NC(=S)Nc1ncccn1)c1ccccc1Cl | 11.8
O=C(NCCc1c[nH]c2ccccc12)C(F)(F)F | 3.79
CCn1c(SCC(=O)NCc2ccco2)nc2c(c1=O)SC(C)C2 (stereo not drawn) | 1.54
CC(OC(=O)CNC(=O)c1sc2ccccc2c1Cl)C(=O)NC1(C#N)CCCCC1 (stereo not drawn) | -22.8
O=C(NCCCc1ccccc1)c1ccncc1 | -15.2
CC(=O)[C@@H]1[C@@H]2C(=O)N(C3CCCCC3)C(=O)[C@@H]2C2c3ccccc3C=CN21 (stereo partly drawn) | 0.0132
Cc1ccc(S(=O)(=O)CCC(=O)NCCc2ccccc2)cc1 | 22.2
O=C(NCSC1=NCCS1)c1ccccc1 | 6.71
